Our source for the binding values is publication PMC6362812.

Amino acid sequences for entries named in this document (tags omitted).
UniProt A5YKK6: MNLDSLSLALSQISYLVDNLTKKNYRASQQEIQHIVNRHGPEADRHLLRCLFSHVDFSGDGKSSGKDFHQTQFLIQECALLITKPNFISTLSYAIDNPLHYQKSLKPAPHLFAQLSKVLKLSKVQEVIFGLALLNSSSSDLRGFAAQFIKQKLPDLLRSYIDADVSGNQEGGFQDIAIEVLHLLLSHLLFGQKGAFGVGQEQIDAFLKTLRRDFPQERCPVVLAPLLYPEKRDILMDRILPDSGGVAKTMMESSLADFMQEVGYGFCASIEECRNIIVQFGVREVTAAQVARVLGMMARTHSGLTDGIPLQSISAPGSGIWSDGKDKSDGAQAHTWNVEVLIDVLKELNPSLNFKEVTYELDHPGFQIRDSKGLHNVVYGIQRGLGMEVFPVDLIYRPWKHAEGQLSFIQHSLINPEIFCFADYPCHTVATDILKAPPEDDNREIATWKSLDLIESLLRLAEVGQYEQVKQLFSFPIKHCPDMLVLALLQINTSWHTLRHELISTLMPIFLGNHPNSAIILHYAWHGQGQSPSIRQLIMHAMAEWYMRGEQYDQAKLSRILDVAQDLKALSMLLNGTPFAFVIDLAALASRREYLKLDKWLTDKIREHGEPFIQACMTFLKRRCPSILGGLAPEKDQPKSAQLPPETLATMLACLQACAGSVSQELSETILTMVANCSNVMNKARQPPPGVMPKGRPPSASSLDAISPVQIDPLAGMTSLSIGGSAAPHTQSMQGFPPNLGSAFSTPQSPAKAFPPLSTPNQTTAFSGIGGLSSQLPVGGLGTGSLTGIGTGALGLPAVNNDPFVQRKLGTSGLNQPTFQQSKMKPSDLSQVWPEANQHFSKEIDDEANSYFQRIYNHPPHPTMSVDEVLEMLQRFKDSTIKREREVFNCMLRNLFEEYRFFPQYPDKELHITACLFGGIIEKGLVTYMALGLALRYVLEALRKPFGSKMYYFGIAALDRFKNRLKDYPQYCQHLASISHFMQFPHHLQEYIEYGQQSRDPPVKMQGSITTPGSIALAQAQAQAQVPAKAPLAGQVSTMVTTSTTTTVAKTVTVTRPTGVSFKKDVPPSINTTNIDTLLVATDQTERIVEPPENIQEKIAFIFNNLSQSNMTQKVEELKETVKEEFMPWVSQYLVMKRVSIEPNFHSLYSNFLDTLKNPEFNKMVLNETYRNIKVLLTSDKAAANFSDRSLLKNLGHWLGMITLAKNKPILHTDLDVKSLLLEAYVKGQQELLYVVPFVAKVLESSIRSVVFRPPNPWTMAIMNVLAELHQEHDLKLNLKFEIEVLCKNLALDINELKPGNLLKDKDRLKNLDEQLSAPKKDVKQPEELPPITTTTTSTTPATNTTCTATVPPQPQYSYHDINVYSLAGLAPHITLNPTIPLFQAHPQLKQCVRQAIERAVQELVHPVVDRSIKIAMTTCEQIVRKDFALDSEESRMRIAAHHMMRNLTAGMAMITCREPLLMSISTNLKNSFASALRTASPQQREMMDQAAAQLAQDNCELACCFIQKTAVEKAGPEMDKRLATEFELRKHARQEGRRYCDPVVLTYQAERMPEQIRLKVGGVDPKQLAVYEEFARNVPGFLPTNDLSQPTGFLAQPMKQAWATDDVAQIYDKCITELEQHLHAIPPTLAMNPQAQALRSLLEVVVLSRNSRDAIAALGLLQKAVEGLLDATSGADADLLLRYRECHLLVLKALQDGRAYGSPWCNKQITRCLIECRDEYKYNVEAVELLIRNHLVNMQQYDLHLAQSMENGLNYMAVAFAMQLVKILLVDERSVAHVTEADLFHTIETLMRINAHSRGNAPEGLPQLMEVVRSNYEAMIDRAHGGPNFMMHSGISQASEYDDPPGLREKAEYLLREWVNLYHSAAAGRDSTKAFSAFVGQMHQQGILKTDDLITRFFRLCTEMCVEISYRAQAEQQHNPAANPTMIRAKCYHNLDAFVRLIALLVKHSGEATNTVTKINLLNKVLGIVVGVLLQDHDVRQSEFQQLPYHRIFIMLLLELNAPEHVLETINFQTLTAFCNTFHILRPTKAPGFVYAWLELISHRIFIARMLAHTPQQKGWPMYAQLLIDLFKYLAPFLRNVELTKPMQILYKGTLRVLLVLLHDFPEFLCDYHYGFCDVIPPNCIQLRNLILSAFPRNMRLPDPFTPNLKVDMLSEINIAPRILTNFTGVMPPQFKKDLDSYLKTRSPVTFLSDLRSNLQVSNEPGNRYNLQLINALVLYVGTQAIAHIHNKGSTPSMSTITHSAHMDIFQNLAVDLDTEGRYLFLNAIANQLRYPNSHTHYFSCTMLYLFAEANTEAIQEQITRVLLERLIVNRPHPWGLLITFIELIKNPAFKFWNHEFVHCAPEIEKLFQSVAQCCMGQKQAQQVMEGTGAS
UniProt Q92600: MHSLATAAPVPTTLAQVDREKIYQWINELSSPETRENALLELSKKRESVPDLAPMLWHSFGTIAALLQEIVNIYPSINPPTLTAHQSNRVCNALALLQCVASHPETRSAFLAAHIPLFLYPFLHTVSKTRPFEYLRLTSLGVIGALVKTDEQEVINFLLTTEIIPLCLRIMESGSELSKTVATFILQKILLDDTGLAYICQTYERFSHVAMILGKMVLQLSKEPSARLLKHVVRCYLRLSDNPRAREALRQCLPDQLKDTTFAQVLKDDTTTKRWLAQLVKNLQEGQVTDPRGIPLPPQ
UniProt Q9NZN8: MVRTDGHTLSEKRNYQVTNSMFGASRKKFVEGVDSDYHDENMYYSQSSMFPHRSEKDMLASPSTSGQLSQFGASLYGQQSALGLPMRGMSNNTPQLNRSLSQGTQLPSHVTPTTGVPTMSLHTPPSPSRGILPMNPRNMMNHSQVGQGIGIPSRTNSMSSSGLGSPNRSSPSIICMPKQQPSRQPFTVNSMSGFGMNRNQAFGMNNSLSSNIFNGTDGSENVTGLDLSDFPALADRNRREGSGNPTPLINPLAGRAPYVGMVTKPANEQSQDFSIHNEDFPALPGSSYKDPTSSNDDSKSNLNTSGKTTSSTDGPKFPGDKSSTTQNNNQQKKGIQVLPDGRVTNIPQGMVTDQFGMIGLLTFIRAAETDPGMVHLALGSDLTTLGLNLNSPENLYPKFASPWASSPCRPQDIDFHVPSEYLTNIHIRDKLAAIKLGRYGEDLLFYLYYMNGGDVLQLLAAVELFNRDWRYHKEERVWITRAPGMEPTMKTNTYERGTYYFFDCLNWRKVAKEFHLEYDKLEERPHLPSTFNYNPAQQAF
UniProt O75175: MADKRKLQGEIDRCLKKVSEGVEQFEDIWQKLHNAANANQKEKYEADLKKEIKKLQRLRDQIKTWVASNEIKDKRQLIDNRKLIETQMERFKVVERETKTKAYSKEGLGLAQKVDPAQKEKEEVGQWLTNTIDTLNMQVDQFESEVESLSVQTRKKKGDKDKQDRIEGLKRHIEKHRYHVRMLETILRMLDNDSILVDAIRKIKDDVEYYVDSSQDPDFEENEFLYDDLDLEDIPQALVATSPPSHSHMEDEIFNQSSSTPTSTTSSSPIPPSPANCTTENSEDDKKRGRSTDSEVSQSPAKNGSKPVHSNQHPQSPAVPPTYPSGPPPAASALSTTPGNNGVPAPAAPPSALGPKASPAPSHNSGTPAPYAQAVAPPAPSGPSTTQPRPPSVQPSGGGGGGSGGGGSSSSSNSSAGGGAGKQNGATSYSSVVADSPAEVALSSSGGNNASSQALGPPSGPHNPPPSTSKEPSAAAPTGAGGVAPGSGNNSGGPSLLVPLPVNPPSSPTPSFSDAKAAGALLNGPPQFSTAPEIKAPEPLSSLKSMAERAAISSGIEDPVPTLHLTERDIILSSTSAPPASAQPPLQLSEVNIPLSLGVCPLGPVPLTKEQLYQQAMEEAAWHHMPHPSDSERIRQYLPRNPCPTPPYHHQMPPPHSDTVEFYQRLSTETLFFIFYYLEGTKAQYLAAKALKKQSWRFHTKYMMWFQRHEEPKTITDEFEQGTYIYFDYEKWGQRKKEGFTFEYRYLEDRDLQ

These are yes or no findings as the source states them, for the method shown. For some assays here: In cells and extracts the contact can be indirect. Some results given as binding are weak or reduced against the parent protein; the word gives no strength. Sequences can lack the tags named with a protein.

Test [1] deals with T1, V5-SBP-MBP-tagged Hs NOT4-C (human) (UniProt O95628).
T1 sequence: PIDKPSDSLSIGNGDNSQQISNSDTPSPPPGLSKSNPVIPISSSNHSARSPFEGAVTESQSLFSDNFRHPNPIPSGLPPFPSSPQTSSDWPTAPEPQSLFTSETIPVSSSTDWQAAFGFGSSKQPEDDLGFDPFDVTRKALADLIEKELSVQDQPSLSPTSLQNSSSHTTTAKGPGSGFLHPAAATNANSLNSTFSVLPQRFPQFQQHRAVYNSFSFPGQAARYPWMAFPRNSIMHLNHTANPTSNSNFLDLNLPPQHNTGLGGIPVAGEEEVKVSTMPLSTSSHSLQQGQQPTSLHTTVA
The test can be described thus: pull-down; SBP pull-down: V5-SBP-MBP-tagged Hs NOT4 constructs expressed in HEK293T, RNase A-treated cleared lysate in NET buffer (50 mM Tris/Cl pH 7.5, 150 mM NaCl, 0.1% Triton X-100, 1 mM EDTA, 10% glycerol), 1 h at 4°C on streptavidin sepharose; endogenous proteins detected by Western blot.

Test [2] has as its target T2, V5-SBP-MBP-tagged Hs NOT4-C ΔC2 (human) (UniProt O95628).
T2 sequence: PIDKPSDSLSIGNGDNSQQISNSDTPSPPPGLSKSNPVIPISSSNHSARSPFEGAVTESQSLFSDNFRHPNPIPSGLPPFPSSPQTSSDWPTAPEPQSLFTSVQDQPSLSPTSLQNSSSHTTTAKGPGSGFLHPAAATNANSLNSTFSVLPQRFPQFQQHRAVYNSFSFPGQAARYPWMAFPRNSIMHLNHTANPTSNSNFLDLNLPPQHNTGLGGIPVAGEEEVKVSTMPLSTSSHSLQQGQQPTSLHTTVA
The test is described as above.

For test [3], the target named is T3, V5-SBP-MBP-tagged Hs NOT4-C ΔC2b (human) (UniProt O95628).
T3 sequence: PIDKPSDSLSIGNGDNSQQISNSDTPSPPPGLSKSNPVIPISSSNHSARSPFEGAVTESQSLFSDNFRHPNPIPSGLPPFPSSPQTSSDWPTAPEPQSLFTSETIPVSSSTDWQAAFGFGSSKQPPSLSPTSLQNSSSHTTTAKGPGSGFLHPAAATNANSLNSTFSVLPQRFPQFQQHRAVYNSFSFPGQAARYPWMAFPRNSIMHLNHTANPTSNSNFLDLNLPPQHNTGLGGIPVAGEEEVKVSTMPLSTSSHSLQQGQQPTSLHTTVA
The description is as above.

In test [4] the target is T4, MBP-tagged Hs NOT4 (full length, bacterially expressed) (human) (UniProt O95628).
T4 sequence: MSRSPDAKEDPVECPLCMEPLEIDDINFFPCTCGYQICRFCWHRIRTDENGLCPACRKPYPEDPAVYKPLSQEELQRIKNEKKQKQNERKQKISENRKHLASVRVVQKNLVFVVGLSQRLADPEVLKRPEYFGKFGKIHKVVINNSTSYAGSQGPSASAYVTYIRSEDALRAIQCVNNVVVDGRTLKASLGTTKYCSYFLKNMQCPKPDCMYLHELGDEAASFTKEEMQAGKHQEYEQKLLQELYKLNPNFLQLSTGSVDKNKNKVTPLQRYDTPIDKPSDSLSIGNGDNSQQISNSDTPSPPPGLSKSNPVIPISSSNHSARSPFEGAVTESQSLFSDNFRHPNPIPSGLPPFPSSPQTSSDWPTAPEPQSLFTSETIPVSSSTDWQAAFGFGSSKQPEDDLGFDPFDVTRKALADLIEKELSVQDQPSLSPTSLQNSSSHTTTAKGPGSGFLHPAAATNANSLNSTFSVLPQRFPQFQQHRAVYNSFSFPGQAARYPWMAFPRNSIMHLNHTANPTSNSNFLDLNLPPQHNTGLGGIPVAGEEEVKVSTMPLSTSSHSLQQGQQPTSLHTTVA
The test can be described thus: pull-down; MBP pull-down: MBP-tagged Hs NOT4 or fragments (isolated on Ni-NTA) immobilised on amylose resin, excess of purified CCR4–NOT proteins, 1 h, 50 mM Na/HEPES pH 7.5, 300 mM NaCl, 2 mM β-mercaptoethanol; maltose elution, SDS-PAGE, Coomassie; both purified.

Test [5] concerns the target T5, MBP-tagged Hs NOT4 C1 region (human) (UniProt O95628).
T5 sequence: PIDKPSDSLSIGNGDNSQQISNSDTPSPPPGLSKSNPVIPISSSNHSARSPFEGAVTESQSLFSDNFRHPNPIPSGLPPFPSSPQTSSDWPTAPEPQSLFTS
The description is as above.

Test [6] concerns the target T6, MBP-tagged Hs NOT4 C2 region (human) (UniProt O95628).
T6 sequence: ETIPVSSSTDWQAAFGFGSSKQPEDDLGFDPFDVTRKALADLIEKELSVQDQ
The description is as above.

Test [7] addresses T7, MBP-tagged Hs NOT4 C3 region (human) (UniProt O95628).
T7 sequence: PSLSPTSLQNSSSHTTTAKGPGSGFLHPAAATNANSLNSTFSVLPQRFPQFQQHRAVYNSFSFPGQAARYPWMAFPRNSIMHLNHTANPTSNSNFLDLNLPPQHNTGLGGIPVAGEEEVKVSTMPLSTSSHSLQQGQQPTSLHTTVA
The test is described as above.

Test [8] has as its target T8, MBP-tagged Hs NOT4-C (bacterially expressed) (human) (UniProt O95628).
T8 sequence: T1 sequence
Described as above.

Regarding “endogenous NOT1 (HEK293T) (from UniProt A5YKK6 1-2376)”, the binding entry was “binds” in test [1], “no binding” in test [2] and “no binding” in test [3].
On to “Hs CAF40 (purified recombinant, used in MBP pull-downs) (from UniProt Q92600 1-299)”, for which the binding result in test [4] is reported as “binds”; in test [5] it was “no binding”; in test [6], “binds”; in test [7], “no binding”; in test [8], “binds”.
As to “endogenous NOT2 (HEK293T) (from UniProt Q9NZN8 1-540)”, the binding entry in test [1] was “binds”; in test [2], “no binding”; in test [3] it was “no binding”.
Regarding “endogenous CAF40 (HEK293T) (from UniProt Q92600 1-299)”, the binding result in test [1] is on record as “binds”; in test [2], “no binding”; in test [3], “no binding”.
“endogenous NOT3 (HEK293T) (from UniProt O75175 1-753)”: the binding entry in test [1] is “binds”; in test [2], “no binding”; in test [3], “no binding”.
